# The other results are listed elsewhere or left out.
# B1: Mindin (Homo sapiens), Q9BUD6 (protein)
# chain: MENPSPAAALGKALCALLLATLGAAGQPLGGESICSARALAKYSITFTGKWSQTAFPKQYPLFRPPAQWSSLLGAAHSSDYSMWRKNQYVSNGLRDFAERGEAWALMKEIEAAGEALQSVHEVFSAPAVPSGTGQTSAELEVQRRHSLVSFVVRIVPSPDWFVGVDSLDLCDGDRWREQAALDLYPYDAGTDSGFTFSSPNFATIPQDTVTEITSSSPSHPANSFYYPRLKALPPIARVTLVRLRQSPRAFIPPAPVLPSRDNEIVDSASVPETPLDCEVSLWSSWGLCGGHCGRLGTKSRTRYVRVQPANNGSPCPELEEEAECVPDNCV
# What was measured:
# Assay in all cases: glycan array binding signal (z-score within array); higher = stronger binding
# Settings in all cases: glycan notation: IUPAC condensed, linker removed
# [1] = molecular target: Neu5Ac(a2-3)Gal(b1-4)GlcNAc(b1-3)Gal(b1-4)[Fuc(a1-3)]GlcNAc
# Procedure, shortened: (§1)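 Negative Z-scores can be read as non-binding. The Z-score is calculated within each array and then averaged across arrays of one protein sequence at different concentrations or buffers and across linkers. Arrays, 3228 in all, were curated from the Consortium for Functional Glycomics database and kept only where the protein sequence was available.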
# [2] = molecular target: Neu5Ac(a2-3)Gal(b1-4)GlcNAc(b1-6)[Gal(b1-3)]GalNAc
# Procedure, shortened: as §1
# [3] = molecular target: Neu5Ac(a2-3)Gal(b1-4)GlcNAc6S
# Procedure, shortened: as §1
# [4] = molecular target: Neu5Ac(a2-3)Gal(b1-4)[Fuc(a1-3)]GlcNAc
# Procedure, shortened: as §1
# [5] = molecular target: Neu5Ac(a2-3)Gal(b1-4)[Fuc(a1-3)]GlcNAc(b1-3)Gal
# Procedure, shortened: as §1
# [6] = molecular target: Neu5Ac(a2-3)Gal(b1-4)[Fuc(a1-3)]GlcNAc(b1-3)Gal(b1-4)GlcNAc
# Procedure, shortened: as §1
# [7] = molecular target: Neu5Ac(a2-3)Gal(b1-4)[Fuc(a1-3)]GlcNAc(b1-3)Gal(b1-4)[Fuc(a1-3)]GlcNAc(b1-3)Gal(b1-4)[Fuc(a1-3)]GlcNAc
# Procedure, shortened: as §1
# [8] = molecular target: Neu5Ac(a2-3)Gal(b1-4)[Fuc(a1-3)]GlcNAc6S
# Procedure, shortened: as §1
# [9] = molecular target: Neu5Ac(a2-3)Gal6S(b1-4)GlcNAc
# Procedure, shortened: as §1
# [10] = molecular target: Neu5Ac(a2-3)Gal6S(b1-4)[Fuc(a1-3)]GlcNAc
# Procedure, shortened: as §1
# Neu5Ac(a2-3)GalNAc = molecular target: Neu5Ac(a2-3)GalNAc
# Procedure, shortened: as §1
# [11] = molecular target: Neu5Ac(a2-3)GalNAc(b1-4)GlcNAc
# Procedure, shortened: as §1
# [12] = molecular target: Neu5Ac(a2-3)[GalNAc(b1-4)]Gal(b1-4)Glc
# Procedure, shortened: as §1
# [13] = molecular target: Neu5Ac(a2-3)[GalNAc(b1-4)]Gal(b1-4)GlcNAc
# Procedure, shortened: as §1
# [14] = molecular target: Neu5Ac(a2-3)[Neu5Ac(a2-6)]GalNAc
# Procedure, shortened: as §1
# Neu5Ac(a2-6)Gal = molecular target: Neu5Ac(a2-6)Gal
# Procedure, shortened: as §1
# Neu5Ac(a2-6)Gal(b1-4)Glc = molecular target: Neu5Ac(a2-6)Gal(b1-4)Glc
# Procedure, shortened: as §1
# [15] = molecular target: Neu5Ac(a2-6)Gal(b1-4)GlcNAc
# Procedure, shortened: as §1
# [16] = molecular target: Neu5Ac(a2-6)Gal(b1-4)GlcNAc(b1-3)Gal(b1-4)GlcNAc
# Procedure, shortened: as §1
# [17] = molecular target: Neu5Ac(a2-6)Gal(b1-4)GlcNAc(b1-3)Gal(b1-4)[Fuc(a1-3)]GlcNAc(b1-3)Gal(b1-4)[Fuc(a1-3)]GlcNAc
# Procedure, shortened: as §1
# [18] = molecular target: Neu5Ac(a2-6)Gal(b1-4)GlcNAc6S
# Procedure, shortened: as §1
# Neu5Ac(a2-6)GalNAc = molecular target: Neu5Ac(a2-6)GalNAc
# Procedure, shortened: as §1
# [19] = molecular target: Neu5Ac(a2-6)GalNAc(b1-4)GlcNAc
# Procedure, shortened: as §1
# Neu5Ac(a2-8)Neu5Ac = molecular target: Neu5Ac(a2-8)Neu5Ac
# Procedure, shortened: as §1
# [20] = molecular target: Neu5Ac(a2-8)Neu5Ac(a2-3)Gal(b1-4)Glc
# Procedure, shortened: as §1
# [21] = molecular target: Neu5Ac(a2-8)Neu5Ac(a2-3)[GalNAc(b1-4)]Gal(b1-4)Glc
# Procedure, shortened: as §1
# [22] = molecular target: Neu5Ac(a2-8)Neu5Ac(a2-8)Neu5Ac
# Procedure, shortened: as §1
# [23] = molecular target: Neu5Ac(a2-8)Neu5Ac(a2-8)Neu5Ac(a2-3)Gal(b1-4)Glc
# Procedure, shortened: as §1
# [24] = molecular target: Neu5Ac(a2-8)Neu5Ac(a2-8)Neu5Ac(a2-3)[GalNAc(b1-4)]Gal(b1-4)Glc
# Procedure, shortened: as §1
# [25] = molecular target: Neu5Ac(a2-8)Neu5Ac(a2-8)Neu5Ac(a2-8)Neu5Ac(a2-3)[GalNAc(b1-4)]Gal(b1-4)Glc
# Procedure, shortened: as §1
# Neu5Ac(b1-6)GalNAc = molecular target: Neu5Ac(b1-6)GalNAc
# Procedure, shortened: as §1
# [26] = molecular target: Neu5Ac(b2-6)Gal(b1-4)GlcNAc
# Procedure, shortened: as §1
# [27] = molecular target: Neu5Ac9Ac(a2-6)Gal(b1-4)GlcNAc
# Procedure, shortened: as §1
# [28] = molecular target: Neu5Gc(a2-3)Gal(b1-3)GlcNAc
# Procedure, shortened: as §1
# [29] = molecular target: Neu5Gc(a2-3)Gal(b1-3)[Fuc(a1-4)]GlcNAc
# Procedure, shortened: as §1
# Neu5Gc(a2-3)Gal(b1-4)Glc = molecular target: Neu5Gc(a2-3)Gal(b1-4)Glc
# Procedure, shortened: as §1
# [30] = molecular target: Neu5Gc(a2-3)Gal(b1-4)GlcNAc
# Procedure, shortened: as §1
# [31] = molecular target: Neu5Gc(a2-3)Gal(b1-4)[Fuc(a1-3)]GlcNAc
# Procedure, shortened: as §1
binder,measurement,setting,value
B1,glycan array binding signal (z-score),[1],-0.24
same,glycan array binding signal (z-score),[2],-0.36
same,glycan array binding signal (z-score),[3],-0.298
same,glycan array binding signal (z-score),[4],-0.257
same,glycan array binding signal (z-score),[5],-0.315
same,glycan array binding signal (z-score),[6],-0.211
same,glycan array binding signal (z-score),[7],-0.314
same,glycan array binding signal (z-score),[8],-0.3
same,glycan array binding signal (z-score),[9],-0.205
same,glycan array binding signal (z-score),[10],-0.264
same,glycan array binding signal (z-score),Neu5Ac(a2-3)GalNAc,-0.343
same,glycan array binding signal (z-score),[11],-0.332
same,glycan array binding signal (z-score),[12],0.066
same,glycan array binding signal (z-score),[13],0.583
same,glycan array binding signal (z-score),[14],-0.227
same,glycan array binding signal (z-score),Neu5Ac(a2-6)Gal,-0.216
same,glycan array binding signal (z-score),Neu5Ac(a2-6)Gal(b1-4)Glc,-0.31
same,glycan array binding signal (z-score),[15],-0.313
same,glycan array binding signal (z-score),[16],-0.32
same,glycan array binding signal (z-score),[17],-0.299
same,glycan array binding signal (z-score),[18],-0.215
same,glycan array binding signal (z-score),Neu5Ac(a2-6)GalNAc,-0.334
same,glycan array binding signal (z-score),[19],-0.408
same,glycan array binding signal (z-score),Neu5Ac(a2-8)Neu5Ac,-0.301
same,glycan array binding signal (z-score),[20],-0.086
same,glycan array binding signal (z-score),[21],0.237
same,glycan array binding signal (z-score),[22],-0.189
same,glycan array binding signal (z-score),[23],-0.295
same,glycan array binding signal (z-score),[24],0.218
same,glycan array binding signal (z-score),[25],0.139
same,glycan array binding signal (z-score),Neu5Ac(b1-6)GalNAc,-0.335
same,glycan array binding signal (z-score),[26],-0.127
same,glycan array binding signal (z-score),[27],-0.308
same,glycan array binding signal (z-score),[28],-0.313
same,glycan array binding signal (z-score),[29],-0.385
same,glycan array binding signal (z-score),Neu5Gc(a2-3)Gal(b1-4)Glc,-0.364
same,glycan array binding signal (z-score),[30],-0.329
same,glycan array binding signal (z-score),[31],0.067

# From the supplement of paper PMC8728848
